Measurements: PubChem BioAssay AID1745853 (National Center for Advancing Translational Sciences (NCATS), 2022)
“And” between values parts separate entries of the source, which are not always exact repeats. Equal entries are not always repeated. The list shows a part of the results. Further columns of the screen follow, without active or inactive calls.

What was measured:
Test in all cases: Primary Screen for Target Class Profiling of Small Molecule Inhibitors of Methyltransferases
[1] = molecular target: Glycine N-methyltransferase (Homo sapiens) (UniProt Q14749); conditions: purified enzyme, MTase-Glo SAH luminescence; measured here: GNMT inhibition; at 40 µM; stronger effect = lower value
Method in brief: (§1)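 Each enzyme was reacted with SAM and its substrate, with compounds tested once at 40 uM; SAH formed was read by MTase-Glo luminescence.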

[2] = molecular target: Guanidinoacetate N-methyltransferase (Homo sapiens) (UniProt Q14353); conditions: purified enzyme, MTase-Glo SAH luminescence; measured here: GAMT inhibition; at 40 µM; stronger effect = lower value
Method in brief: as §1

[3] = molecular target: Histamine N-methyltransferase (Homo sapiens) (UniProt P50135); conditions: purified enzyme, MTase-Glo SAH luminescence; measured here: HNMT inhibition; at 40 µM; stronger effect = lower value
Method in brief: as §1

[4] = molecular target: Nicotinamide N-methyltransferase (Homo sapiens) (UniProt P40261); conditions: purified enzyme, MTase-Glo SAH luminescence; measured here: NNMT inhibition; at 40 µM; stronger effect = lower value
Method in brief: as §1

[5] = molecular target: Phenylethanolamine N-methyltransferase (Homo sapiens) (UniProt P11086); conditions: purified enzyme, MTase-Glo SAH luminescence; measured here: PNMT inhibition; at 40 µM; stronger effect = lower value
Method in brief: as §1
% is set by controls: 0 for no effect and ±100 for the full control effect.

SMILES	activity change, negative = inhibition [1]	activity change, negative = inhibition [2]	activity change, negative = inhibition [3]	activity change, negative = inhibition [4]	activity change, negative = inhibition [5]
Cc1nn(C)c(C)c1CCN(C)Cc1ccc(=O)n(C)c1	-2.7%	1.28%	1.4%	0.663%	-0.629%
O=C(O)CCCCCC[C@H]1C(=O)NC(=O)N1CC[C@@H](O)C1CCCCC1	-7.14%	-21.3%	9.83%	-22.5%	-3.02%
COC(=O)Cc1cc2c(c([N+](=O)[O-])c1)N(C(=O)CC[C@H](N)C(=O)O)CC2	-4.02%	-6.57%	6.36%	-14.5%	-0.46%
CC1(C)C(=O)N(CCOc2ccccc2)[C@H]2CN(CC3CCOC3)C[C@H]2[S+]1(=O)[O-] (some centres not stated)	-2.51%	-0.746%	-0.393%	-2.59%	0.013%
COc1ccc(N2CCN(C(=O)CCc3nnc4n(Cc5ccccc5)c(=O)c5ccccc5n34)CC2)cc1	-15.5%	-2.66%	-12.1%	-13.3%	-14.9%
COCCCNC(=O)C1(C)Cn2nc(-c3ccccc3)cc2C(=O)N1c1cc(C)ccc1C (configuration not stated)	1.79%	0%	3.6%	8.74%	-0.238%
CSCc1noc(CN2CCCC(CO)(CC=C(C)C)C2)n1 (configuration not stated)	-1.56%	-0.544%	0.209%	-7.96%	-1.28%
CCOc1ccccc1CNC(=O)C(CC)n1ccc2cc(S(=O)(=O)N3CCCCC3)ccc21 (configuration not stated)	6.18%	0.312%	3.66%	2.84%	3.08%
COc1ccc(C(=O)N2CCC3(C2)C(=O)Nc2ccccc23)cc1 (configuration not stated)	-5.06%	0.871%	0.961%	-5.5%	-1.73%
Cc1cccc(CNC(=O)c2ncn3c2C(=O)N(C2CC2)C(C)(C(=O)NCc2cccc(C)c2)C3)c1 (configuration not stated)	3.03%	2.15%	7.52%	7.35%	10.2%
O=C(CC1NCCC[C@H]1O)Cn1cnc2cc(Br)c(Cl)cc2c1=O (some centres not stated)	-4.74%	-22.9%	-6.73%	-27.2%	-6.62%
COc1ccc2cc(-c3cc(-c4cc(Cl)cc(Cl)c4)nn3C(C)c3ccc(C(=O)NCCC(=O)O)cc3)ccc2c1 (configuration not stated)	-1.06%	19.9%	9.76%	-3.41%	7.8%
Cc1ccc(C(=O)N2CCC(Cc3noc(C4CCOCC4)n3)C2)s1 (configuration not stated)	-4.42%	-5.86%	-3.86%	-12.4%	-6.82%
Cc1noc(C)c1-c1cc(O)cc(C(O)c2ccccc2)c1 (configuration not stated)	-0.57%	2.91%	0.719%	-15.2%	-2.71%
Cc1cc2c(cc3n2CC(C)(C(=O)NC2CCCCC2)N(Cc2ccco2)C3=O)o1 (configuration not stated)	-9.4%	0.771%	-6.68%	-6.71%	-4.16%
Cc1ccccc1CCNC(=O)c1cc2n(n1)CC(C)(C(=O)NCc1ccc(F)cc1)N(C)C2=O (configuration not stated)	-2.08%	3.09%	-8.23%	0.14%	-2.76%

SMILES	activity change, negative = inhibition [1]	activity change, negative = inhibition [2]	activity change, negative = inhibition [3]	activity change, negative = inhibition [4]	activity change, negative = inhibition [5]
O=C(O)Cc1ccc(O)c(O)c1	-60.8%	12.2%	10.1%	-4.46%	3.4%
NC(=O)c1cccc2[nH]c(-c3ccc([C@@H]4CCCN4)cc3F)nc12	-21.4%	-31% and -23.9%	-67.2%	-18.3% and -61% and -56%	21.1% and -29.5% and -25.2%
O=c1c2ccccc2n2c(SCc3cccc(F)c3)nnc2n1CCc1ccccc1	-8.58%	-0.741%	-4.45%	-10.3%	-4.48%
Cc1ccc(-n2cccc2CC(=O)N2CCCC2)cc1	-4.68%	-4.21%	-1.47%	-2.38%	-0.738%
CCN1C(=O)c2cc(C(=O)N3CCN(c4ccccc4)CC3)nn2CC1(C)C(=O)NC1CCCC1 (configuration not stated)	1.03%	3.46%	-0.913%	1.92%	-0.682%
O=C(c1cnc(C2CC2)nc1)N1CCC2(CCNCC2CO)CC1 (configuration not stated)	-1.67%	-4.95%	-8.45%	-19.6%	-13.6%
Cc1cn2cc(CC(=O)N3CCC4(CC3)CN(Cc3ccc(-n5nccn5)cc3Cl)C4)nc2s1	-7.56%	5.98%	5.75%	-23.3%	-14.9%
Cc1ccc(CN2CCN(Cc3ccc(=O)n(C)c3)CC2)cc1	-5.44%	-3.25%	-1.41%	-5.64%	-19%
C=CCOc1ccccc1CNc1ccc2[nH]c(=O)[nH]c2c1	-13.3%	4.1%	-13.2%	-13.5%	-13.1%
COc1ccc(N2CCN(C(=O)CCCc3nnc4n5nc(-c6ccccc6)nc5c5ccccc5n34)CC2)cc1	-12.3%	0.313%	-3.09%	-5.91%	-6.75%
C=CC(C)(O)CCC1C(C)(O)CCC2C(C)(C)CCCC21C (configuration not stated)	1.82%		9.84%		
O=C(O)c1cccc(CN2C(=O)/C(=C(\c3ccccc3)c3ccc(Cl)cc3)c3ccccc32)c1	-52%	7.87%	1.59%	-63.7%	-8.58%
Cc1ccc(NC(=O)Cn2c(=O)oc3cc(S(=O)(=O)N4CC(C)CC(C)C4)ccc32)c(C)c1 (configuration not stated)	-5.06%	-20.1%	5.38%	7.88%	-1.29%
CN1C(=O)CCC2(CNC(=O)CCc3c[nH]c4ccccc34)CCC=C12 (configuration not stated)	-3.36%	-0.65%	0.078%	-4.08%	-3.7%
Cc1ccc(-c2n[nH]n3c2nc(=O)c2ccc(C(=O)N4CCN(c5ccccc5F)CC4)cc23)cc1	-4.63%	0.202%	2.41%	0.903%	-1.39%
